Experimental data reported in patent US12116397B2, “IL-IR-I binding polypeptide” (Swedish Orphan Biovitrum AB (publ), priority 2017, dated 2024).

Key:
[1] = target: T1, human biotinylated FcRn (Homo sapiens, UniProt P55899); test: Biacore FcRn affinity analysis; type: binding; conditions: five concentrations 2.5-200 nM
T1 construct: purchased Immunitrack ApS

[2] = target: T2, FCγR3A (Homo sapiens, UniProt P08637); test: FCγR3A affinity analysis by Biolayer Interferometry; type: binding
T2 construct: purchased Sino Biological
T2 sequence (P08637 17-254): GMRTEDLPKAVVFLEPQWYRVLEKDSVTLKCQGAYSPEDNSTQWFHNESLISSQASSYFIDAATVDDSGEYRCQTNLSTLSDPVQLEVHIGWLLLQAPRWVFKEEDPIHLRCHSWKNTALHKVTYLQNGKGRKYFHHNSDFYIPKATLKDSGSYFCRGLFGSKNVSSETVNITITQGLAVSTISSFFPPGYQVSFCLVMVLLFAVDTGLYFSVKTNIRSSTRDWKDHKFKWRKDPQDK
Protocol: The affinity towards FCγR3A was analysed with Biolayer Interferometry essentially as disclosed in Example 10, with the exception that biotinylated FCγR3A (Sino Biological) was immobilized on a Streptavidin biosensor for kinetics (Pall/Fortebio) and the proteins were tested using concentrations of 100 and 1000 nM. In addition Human IgG (GammaNorm, Octapharma) was used as control in the measurements.

T1 sequence (P55899 24-297 limits assumed): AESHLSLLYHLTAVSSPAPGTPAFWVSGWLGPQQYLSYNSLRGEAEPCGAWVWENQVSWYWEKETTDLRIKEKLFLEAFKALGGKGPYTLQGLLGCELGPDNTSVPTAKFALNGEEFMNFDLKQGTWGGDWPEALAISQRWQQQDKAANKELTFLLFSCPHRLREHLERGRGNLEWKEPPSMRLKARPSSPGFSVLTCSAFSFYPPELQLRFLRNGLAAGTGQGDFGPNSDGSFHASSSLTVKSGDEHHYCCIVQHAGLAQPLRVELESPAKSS
T1 sequence (P61769 21-119 partner): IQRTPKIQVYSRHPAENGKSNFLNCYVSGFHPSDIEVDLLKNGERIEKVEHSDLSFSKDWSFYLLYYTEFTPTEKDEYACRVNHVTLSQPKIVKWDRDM

B1: PS10656: fusion of Z18754 with IgG4 Fc, S228P mutation in the hinge region (protein)
chain: AEAKYAKEVEEIQMEIFRLPNLTRRQYTAFIRKLLDDPSQSSELLSEAKKLSESQAPKASGGGGSGGGGS[sequence of human IgG4 Fc with S228P (EU numbers) omitted]
modifications: Engineered IL-1R-I binding polypeptide
notes: fusion of Z18754 with IgG4 Fc, S228P mutation in the hinge region
affinity towards FcRn (order / change) [1]: SEQ ID NO 1735>SEQ ID NO 1736>SEQ ID NO 1734=SEQ ID NO 1737
binding to FCγR3A ([2]; at 100 nM): no binding
binding to FCγR3A ([2]; at 1000 nM): weak binding
binding/affinity towards FCγR3A (conclusion) ([2]; mutated Fc portions): low affinity
